# Measured values from the supplement of paper PMC11348887.
# Counter-ions that a name gives are not always drawn. The list shows a part of the results. No stated cut-off is given here; in the data, active = -2 or less and inactive = the rest. Repeats are few or missing, and single values can be far off.
# System: hPSC-derived cortical neurons (WA09)
# Assay: nuclei number (viability) z-score; higher = more surviving cells
# Conditions: 5 µM; treatment: days 7-14 after plating, readout day 21
# 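Further: nuclei counted from DAPI counterstain by automated high-content image analysis, four fields per well at ×20 in 384-well plates, with sequential b-score then z-score normalization.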
row,Structure (SMILES),nuclei number (z-score)
1,CO[C@@]1(NC(=O)C(C(=O)O)c2ccc(O)cc2)C(=O)N2C(C(=O)O)=C(CSc3nnnn3C)CO[C@@H]21 (stereo partly specified) [Moxalactam Disodium],inactive: 2.69
2,COc1cc2c(cc1O)CC[C@@H]1[C@@H]2CC[C@]2(C)[C@@H](O)CC[C@@H]12 [2-Methoxyestradiol (2-MeOE2)],inactive: 0.175
3,COc1cc(N2CCN(C)CC2)ccc1Nc1nccc(-c2cn(C)c3cnccc23)n1,active: -6.11
4,COC(=O)C1=C(C)NC(C)=C(C(=O)OC)C1c1ccccc1[N+](=O)[O-] [Nifedipine],inactive: -0.723
5,CCCCCCCC(=O)N[C@H](CN1CCCC1)[C@H](O)c1ccc2c(c1)OCCO2 [Eliglustat Tartrate],inactive: -0.104
6,NC(=O)c1cccc2[nH]c(-c3ccc(C4CCCN4)cc3F)nc12 (stereo unspecified),inactive: 0.00843
7,CC(C)NC[C@H](O)COc1ccc(CCOCC2CC2)cc1 [Levobetaxolol HCl],inactive: 0.32
8,COC(=O)N1CCN(Cc2cccc(NC(=O)Nc3ccc(C)nc3)c2F)CC1,inactive: 2.48
9,O=C(O)CSc1cc(NS(=O)(=O)c2ccc(Br)cc2)c2ccccc2c1O,inactive: 0.344
10,CN(C)CCCN1c2ccccc2CCc2ccc(Cl)cc21 [Clomipramine HCl],inactive: 0.0982
11,Cc1cc(NC(=O)C2=C(O)c3ccccc3S(=O)(=O)N2C)no1 [Isoxicam],inactive: 0.387
12,Nc1ccc(O)c(C(=O)O)c1 [Mesalamine],inactive: 3.79
13,Clc1ccccc1CN1CCc2sccc2C1 [Ticlopidine HCl],inactive: 0.00193
14,O=C(O)P(=O)(O)O [Foscarnet Sodium],inactive: -0.322
15,CC(C)(C)NS(=O)(=O)c1cncc(-c2cc(F)c3nc(N)nn3c2)c1,inactive: 0.0161
16,Cc1nc(C)c(Cl)c(O)c1Cl [Clopidol],inactive: 0.0736
17,CCN(CC)CCCC(C)Nc1c2ccc(Cl)cc2nc2ccc(OC)cc12 (stereo unspecified) [Quinacrine 2HCl],active: -3.2
18,CC(=O)N1CCN(c2ccc(OCC3COC(Cn4ccnc4)(c4ccc(Cl)cc4Cl)O3)cc2)CC1 (stereo unspecified) [Ketoconazole],inactive: -0.551
19,CN(CCOc1ccc(NS(C)(=O)=O)cc1)CCc1ccc(NS(C)(=O)=O)cc1 [Dofetilide],inactive: 7.39
20,Cc1[nH]c(/C=C2\C(=O)Nc3ccccc32)c(C)c1CCC(=O)O [TSU-68 (SU6668_ Orantinib)],inactive: 0.941
21,CNc1ncc2cc(-c3cc(NC(=O)NCCC(C)(C)C)c(F)cc3C)c(C)nc2n1,inactive: 0.405
22,COc1ccc2cccc(CCNC(C)=O)c2c1 [Agomelatine],inactive: -0.671
23,COc1cc(C=O)ccc1O [Vanillin],inactive: 6.6

row,Structure (SMILES),nuclei number (z-score)
1,C1=N/C2=N/c3ccc(OCCN4CCCC4)c(c3)COC/C=C/COCc3cccc(c3)C(=C1)N2 [Pacritinib (SB1518)],active: -4.71
2,CN(C)C(=O)c1ccc(S(=O)(=O)c2ccc(NC(=O)[C@@](C)(O)C(F)(F)F)c(Cl)c2)cc1,inactive: 1.28
3,C#C[C@]1(O)CC[C@H]2[C@@H]3CCc4cc(OC)ccc4[C@H]3CC[C@@]21C [Mestranol],inactive: 0.427
4,CC(C)NCC(O)c1ccc(NS(C)(=O)=O)cc1 (stereo unspecified) [Sotalol],inactive: -0.556
5,CO[C@H]1C[C@@H]2CC[C@@H](C)[C@@](O)(O2)C(=O)C(=O)N2CCCC[C@H]2C(=O)O[C@H]([C@H](C)C[C@@H]2CC[C@@H](O)[C@H](OC)C2)CC(=O)[C@H](C)/C=C(\C)[C@@H](O)[C@@H](OC)C(=O)[C@H](C)C[C@H](C)/C=C/C=C/C=C/1C [Rapamycin (Sirolimus)],inactive: -0.204
6,N[C@@H]1CCCN(c2c(/C=C3\SC(=O)NC3=O)cccc2-c2ccccc2)C1,inactive: 1.37
7,N#Cc1ccc2[nH]c(O)c(-c3ccc(CN4CCOCC4)cn3)c2c1,inactive: -0.721
8,Oc1ccc(Nc2nc(-c3ccc(Cl)cc3)cs2)cc1,inactive: -0.287
9,NS(=O)(=O)c1ccc(C(=O)O)cc1 [Carzenide],inactive: 0.186
10,COc1cc2ncnc(Nc3ccc(Cl)cc3F)c2cc1OC,inactive: 0.584
11,N#C[C@@H]1CCCN1C(=O)CNC12CC3CC(CC(O)(C3)C1)C2 [Vildagliptin (LAF-237)],inactive: 1.48
12,CCN(CC)CCN(Cc1ccc(-c2ccc(C(F)(F)F)cc2)cc1)C(=O)Cn1c(SCc2ccc(F)cc2)nc(=O)c2c1CCC2,active: -5.8
13,O=C(O[C@@H]1Cc2c(O)cc(O)cc2O[C@@H]1c1cc(O)c(O)c(O)c1)c1cc(O)c(O)c(O)c1 [(-)-Epigallocatechin Gallate],inactive: 2
14,CC(C)C[C@H](NC(=O)CNC(=O)c1cc(Cl)ccc1Cl)B(O)O,active: -7.45
15,CC(C)(CO)[C@@H](O)C(=O)NCCCO [D panthenol],inactive: 0.164
16,COC(=O)c1ccc2c(c1)NC(=O)/C2=C(\Nc1ccc(N(C)C(=O)CN2CCN(C)CC2)cc1)c1ccccc1 [Nintedanib (BIBF 1120)],inactive: -0.725
17,CNC[C@H](O)c1cccc(O)c1 [Phenylephrine HCl],inactive: 3.11
18,N[C@@H]1CN(c2c(F)cc3c(=O)c(C(=O)O)cn([C@@H]4C[C@@H]4F)c3c2Cl)CC12CC2 [Sitafloxacin Hydrate],inactive: -0.62
19,CCOc1ccn(-c2ccc(F)cc2)c(=O)c1C(=O)Nc1ccc(Oc2ccnc(N)c2Cl)c(F)c1,inactive: 1.47
20,CCC(=O)NS(=O)(=O)c1ccc(-c2c(-c3ccccc3)noc2C)cc1 [Parecoxib],inactive: -0.0231
21,CCn1cc(-c2ccnc3[nH]c(-c4cccc(CN(C)C)c4)cc23)c(-c2ccc(NC(=O)N(C)C)cc2)n1,inactive: 0.845
22,Cc1nc(Nc2n[nH]c3c2CN(C(=O)N[C@H](CN(C)C)c2ccccc2)C3(C)C)c2sccc2n1,active: -4.2
23,CSc1cccc(Nc2ncc3cc(-c4c(Cl)cccc4Cl)c(=O)n(C)c3n2)c1,inactive: -0.388
